Some of the results follow. Read counts after selection give these values, which scatter widely. Scores sum up all selected molecules that hold the word; the word was not tested alone.

Sequence of IMP3 KH1-2 (chain, as listed by the source): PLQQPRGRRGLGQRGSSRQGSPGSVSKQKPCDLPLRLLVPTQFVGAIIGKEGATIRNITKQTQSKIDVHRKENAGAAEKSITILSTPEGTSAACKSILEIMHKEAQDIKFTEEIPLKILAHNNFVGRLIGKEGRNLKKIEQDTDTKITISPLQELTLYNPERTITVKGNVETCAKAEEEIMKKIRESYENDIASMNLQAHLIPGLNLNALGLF

The assay has as its system IMP3 KH1-2. The assay is described as follows: 6-mer SELEX enrichment z-score vs GST control; IMP3 is the RNA-binding protein IGF2BP3; higher = more enriched by binding. To be noted: construct: KH1-2 (164-376); SELEX round: R4. As to the method:
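SELEX-seq with GST-tagged IMP3 KH1-2 (Pro164-Phe376) and an N40 RNA pool, round 4 (stringent 300/600 mM KCl washes). 6-mer z-score of sequence-tag enrichment normalised to the corresponding GST SELEX round; RNA k-mers written as DNA (T for U).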
With TATGTG, the “6-mer SELEX enrichment z-score” value came to 0.413.

In the case of GAAAAT, the “6-mer SELEX enrichment z-score” value worked out at 0.148.

For ATCGAT, the “6-mer SELEX enrichment z-score” value is -0.155.

For TAGGGT, the “6-mer SELEX enrichment z-score” value worked out at 0.243.

In the case of TTCTGC, the “6-mer SELEX enrichment z-score” value was 0.257.

Take GCTAAT: the “6-mer SELEX enrichment z-score” value was 0.318.

With GTGAGG, the “6-mer SELEX enrichment z-score” value came to 0.729.

With ATGAGT, the “6-mer SELEX enrichment z-score” value is -0.174.

As for CATTGT, the “6-mer SELEX enrichment z-score” value was 0.336.

On to ACTATC, for which the “6-mer SELEX enrichment z-score” value was found to be 0.518.

As for TCCTCG, the “6-mer SELEX enrichment z-score” value is -0.187.

In the case of AATCAT, the “6-mer SELEX enrichment z-score” value was determined as 1.37.

Regarding TGGGTC, the “6-mer SELEX enrichment z-score” value was determined as 0.173.

Take CGTGAT: the “6-mer SELEX enrichment z-score” value was -0.136.

For AGGGAA, the “6-mer SELEX enrichment z-score” value was 0.916.

Regarding AGGACA, the “6-mer SELEX enrichment z-score” value is 1.13.

On to TCGTAC, for which the “6-mer SELEX enrichment z-score” value was -0.466.

As to GAGCGT, the “6-mer SELEX enrichment z-score” value was -3.61.

As to AGATTC, the “6-mer SELEX enrichment z-score” value was 0.54.

AAGTGT: the “6-mer SELEX enrichment z-score” value was -0.599.

On to CACTGC, for which the “6-mer SELEX enrichment z-score” value was determined as 0.824.

For the sequence CAAAAC, the “6-mer SELEX enrichment z-score” value is -1.54.

For GGTGCT, the “6-mer SELEX enrichment z-score” value is -0.064.

With TCGTTC, the “6-mer SELEX enrichment z-score” value is 0.015.

For GGTCTT, the “6-mer SELEX enrichment z-score” value is 0.013.

As for ATAATT, the “6-mer SELEX enrichment z-score” value was 1.82.

Regarding TCCACT, the “6-mer SELEX enrichment z-score” value stood at 0.448.

With GAATGC, the “6-mer SELEX enrichment z-score” value was -0.157.

Turning to TAAGCT, the “6-mer SELEX enrichment z-score” value is -0.113.

As for ATATCG, the “6-mer SELEX enrichment z-score” value was 0.359.

As to CTCTGG, the “6-mer SELEX enrichment z-score” value was -0.342.

CTCCTC: the “6-mer SELEX enrichment z-score” value stood at 0.143.

CACGGC: the “6-mer SELEX enrichment z-score” value was 1.06.

Regarding GGCTCG, the “6-mer SELEX enrichment z-score” value is -0.056.

As for TAGCGC, the “6-mer SELEX enrichment z-score” value was -0.626.

In the case of AGGCGG, the “6-mer SELEX enrichment z-score” value was determined as 0.589.

Turning to CCACAG, the “6-mer SELEX enrichment z-score” value was -0.293.

In the case of TCACGC, the “6-mer SELEX enrichment z-score” value is 0.067.

As to GATGTG, the “6-mer SELEX enrichment z-score” value was 0.446.

Regarding CTAGGC, the “6-mer SELEX enrichment z-score” value stood at 0.127.
